Measurements taken from publication PMC10470960.
Where a chain is given by its changes, count along the chain named. Results are given in words; binding and its absence hold for the method and conditions named. Some entries that bind do so weakly or less than the wild type. Sequences can lack the tags named with a protein.

What was measured:
Assay in all cases: two-hybrid; one-hybrid assay: Kar4p-Gal4 DNA-binding domain recruits endogenous Ste12p to drive the HIS3 reporter in PJ69-4A; 10-fold serial dilutions on SC-HIS with 3 uM alpha-factor, 30 degrees; graded ++++ to -
[1] = target: T1, Kar4p W212R fused to the Gal4p DNA-binding domain (S. cerevisiae) (UniProt P25583)
T1 sequence: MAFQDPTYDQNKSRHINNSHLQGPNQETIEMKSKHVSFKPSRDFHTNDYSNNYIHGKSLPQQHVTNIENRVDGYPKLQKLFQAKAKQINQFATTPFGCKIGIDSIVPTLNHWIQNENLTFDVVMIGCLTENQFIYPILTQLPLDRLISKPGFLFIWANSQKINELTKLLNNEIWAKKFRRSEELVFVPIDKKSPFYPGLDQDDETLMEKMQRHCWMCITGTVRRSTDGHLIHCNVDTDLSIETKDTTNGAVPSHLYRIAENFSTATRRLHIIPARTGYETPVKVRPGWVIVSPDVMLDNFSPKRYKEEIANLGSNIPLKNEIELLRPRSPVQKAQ

[2] = target: T2, Kar4p C127Y fused to the Gal4p DNA-binding domain (S. cerevisiae) (UniProt P25583)
T2 sequence: T1 sequence with C127Y, R212W

[3] = target: T3, Kar4p E183K fused to the Gal4p DNA-binding domain (S. cerevisiae) (UniProt P25583)
T3 sequence: T1 sequence with E183K, R212W

[4] = target: T4, Kar4p P293L fused to the Gal4p DNA-binding domain (S. cerevisiae) (UniProt P25583)
T4 sequence: T1 sequence with R212W, P293L

[5] = target: T5, Kar4p A85P fused to the Gal4p DNA-binding domain (S. cerevisiae) (UniProt P25583)
T5 sequence: T1 sequence with A85P, R212W

[6] = target: T6, Kar4p L255F fused to the Gal4p DNA-binding domain (S. cerevisiae) (UniProt P25583)
T6 sequence: T1 sequence with R212W, L255F

B1: Ste12p (protein, UniProt P13574 1-688)
chain: MKVQITNSRTEEILKVQANNENDEVSKATPGEVEESLRLIGDLKFFLATAPVNWQENQIIRRYYLNSGQGFVSCVFWNNLYYITGTDIVKCCLYRMQKFGREVVQKKKFEEGIFSDLRNLKCGIDATLEQPKSEFLSFLFRNMCLKTQKKQKVFFWFSVAHDKLFADALERDLKRESLNQPSTTKPVNEPALSFSYDSSSDKPLYDQLLQHLDSRRPSSTTKSDNSPPKLESENFKDNELVTVTNQPLLGVGLMDDDAPESPSQINDFIPQKLIIEPNTLELNGLTEETPHDLPKNTAKGRDEEDFPLDYFPVSVEYPTEENAFDPFPPQAFTPAAPSMPISYDNVNERDSMPVNSLLNRYPYQLSVAPTFPVPPSSSRQHFMTNRDFYSSNNNKEKLVSPSDPTSYMKYDEPVMDFDESRPNENCTNAKSHNSGQQTKQHQLYSNNFQQSYPNGMVPGYYPKMPYNPMGGDPLLDQAFYGADDFFFPPEGCDNNMLYPQTATSWNVLPPQAMQPAPTYVGRPYTPNYRSTPGSAMFPYMQSSNSMQWNTAVSPYSSRAPSTTAKNYPPSTFYSQNINQYPRRRTVGMKSSQGNVPTGNKQSVGKSAKISKPLHIKTSAYQKQYKINLETKARPSAGDEDSAHPDKNKEISMPTPDSNTLVVQSEEGGAHSLEVDTNRRSDKNLPDAT
- binding [1]: binds
- binding [2]: binds
- binding [3]: no binding
- binding [4]: no binding
- binding [5]: binds
- binding [6]: no binding
